Results from patent US12583836B2 (Anaxis Pharma Pty Ltd, priority 2020, dated 2026).
pKd: −log10 of the molar value. One block for each compound: values may come before it.

Assays:
RIP3 = biological target: T1, RIP3 (Homo sapiens, UniProt Q9Y572); assay: KINOMEscan binding assay, RIP3; details: equilibrium dissociation constant, class symbols
T1 construct: purchased DiscoverX (KINOMEscan service); host or cells: E. coli BL21-derived (T7 phage) or HEK293
Description: The Hill Slope was set to −1.

RIP1 = biological target: T2, RIP1 (Homo sapiens, UniProt Q13546); assay: KINOMEscan binding assay, RIP1; details: equilibrium dissociation constant, class symbols
T2 construct: purchased DiscoverX (KINOMEscan service); host or cells: E. coli BL21-derived (T7 phage) or HEK293
T2 sequence (Q13546 1-671): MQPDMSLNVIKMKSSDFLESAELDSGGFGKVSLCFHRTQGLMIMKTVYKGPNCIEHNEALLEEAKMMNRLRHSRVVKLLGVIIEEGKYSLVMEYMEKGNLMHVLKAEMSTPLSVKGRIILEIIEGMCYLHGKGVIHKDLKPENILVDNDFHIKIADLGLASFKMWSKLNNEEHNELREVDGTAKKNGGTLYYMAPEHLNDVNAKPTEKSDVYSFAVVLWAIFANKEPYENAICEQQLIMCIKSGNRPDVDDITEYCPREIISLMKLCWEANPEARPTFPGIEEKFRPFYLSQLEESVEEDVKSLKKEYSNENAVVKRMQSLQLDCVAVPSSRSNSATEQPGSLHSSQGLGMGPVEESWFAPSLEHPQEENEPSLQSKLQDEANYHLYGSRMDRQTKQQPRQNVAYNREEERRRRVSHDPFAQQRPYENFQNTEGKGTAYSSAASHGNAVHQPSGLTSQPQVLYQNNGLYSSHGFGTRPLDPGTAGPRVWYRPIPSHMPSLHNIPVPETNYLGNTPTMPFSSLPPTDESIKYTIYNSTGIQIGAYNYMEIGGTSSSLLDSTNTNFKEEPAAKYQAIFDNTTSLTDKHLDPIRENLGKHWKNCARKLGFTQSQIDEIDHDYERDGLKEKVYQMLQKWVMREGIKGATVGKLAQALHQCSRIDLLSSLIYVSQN

T1 sequence (Q9Y572 whole entry): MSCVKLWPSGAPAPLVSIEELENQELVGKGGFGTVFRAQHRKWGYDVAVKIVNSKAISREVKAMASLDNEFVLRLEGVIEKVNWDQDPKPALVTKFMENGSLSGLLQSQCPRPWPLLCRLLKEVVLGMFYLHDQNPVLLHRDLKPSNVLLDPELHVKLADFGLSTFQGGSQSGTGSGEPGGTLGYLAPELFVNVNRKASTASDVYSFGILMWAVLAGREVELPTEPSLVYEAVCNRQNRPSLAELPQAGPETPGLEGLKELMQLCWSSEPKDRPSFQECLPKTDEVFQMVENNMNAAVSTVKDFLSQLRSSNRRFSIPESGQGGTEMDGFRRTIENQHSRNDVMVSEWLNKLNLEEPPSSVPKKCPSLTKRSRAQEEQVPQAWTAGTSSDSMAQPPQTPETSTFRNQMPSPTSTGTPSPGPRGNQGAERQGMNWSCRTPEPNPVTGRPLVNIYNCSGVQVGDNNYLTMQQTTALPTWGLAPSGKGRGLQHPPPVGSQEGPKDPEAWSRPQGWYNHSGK

SMILES: CCS(=O)(=O)Nc1ccc(-c2n[nH]c(Nc3cccc(C(F)(F)F)n3)c2C(N)=O)cc1OCC(C)C [Compound 12, 3-(4-(ethylsulfonamido)-3-isobutoxyphenyl)-5-((6-(trifluoromethyl)pyridin-2-yl)amino)-1H-pyrazole-4-carboxamide]
pKd (RIP3): < 4.52
pKd (RIP1): < 4.52

SMILES: CCS(=O)(=O)Nc1ccc(-c2n[nH]c(Nc3cnccn3)c2C(N)=O)cc1OCc1cccc(F)c1 [Compound 26, 3-(4-(ethylsulfonamido)-3-((3-fluorobenzyl)oxy)phenyl)-5-(pyrazin-2-ylamino)-1H-pyrazole-4-carboxamide]
pKd (RIP3): < 4.52
pKd (RIP1): < 4.52

SMILES: CCS(=O)(=O)Nc1ccc(-c2n[nH]c(Nc3cnccn3)c2C(N)=O)cc1OCc1ccncc1 [Compound 28, 3-(4-(ethylsulfonamido)-3-(194yridine-4-ylmethoxy)phenyl)-5-(pyrazin-2-ylamino)-1H-pyrazole-4-carboxamide]
pKd (RIP3): < 4.52
pKd (RIP1): < 4.52

SMILES: CCS(=O)(=O)Nc1ccc(-c2n[nH]c(Nc3ccccn3)c2C(N)=O)cc1OCc1ccc(F)cc1 [Compound 30, 3-(4-(ethylsulfonamido)-3-((4-fluorobenzyl)oxy)phenyl)-5-(pyridin-2-ylamino)-1H-pyrazole-4-carboxamide]
pKd (RIP3): < 4.52
pKd (RIP1): < 4.52

SMILES: CCS(=O)(=O)Nc1ccc(-c2n[nH]c(Nc3cnccn3)c2C(N)=O)cc1OCc1cccnc1 [Compound 32, 3-(4-(ethylsulfonamido)-3-(194yridine-3-ylmethoxy)phenyl)-5-(pyrazin-2-ylamino)-1H-pyrazole-4-carboxamide]
pKd (RIP3): < 4.52
pKd (RIP1): < 4.52

SMILES: CCS(=O)(=O)Nc1ccc(-c2n[nH]c(Nc3ccccn3)c2C(N)=O)cc1OCC1CCCCC1 [Compound 35, 3-(3-(cyclohexylmethoxy)-4-(ethylsulfonamido)phenyl)-5-(pyridin-2-ylamino)-1H-pyrazole-4-carboxamide]
pKd (RIP3): < 4.52
pKd (RIP1): < 4.52

SMILES: CCS(=O)(=O)Nc1ccc(-c2n[nH]c(Nc3ccccn3)c2C(N)=O)cc1OCC(C)C [Compound 37, 3-(4-(ethylsulfonamido)-3-isobutoxyphenyl)-5-(pyridin-2-ylamino)-1H-pyrazole-4-carboxamide]
pKd (RIP3): < 4.52
pKd (RIP1): < 4.52

SMILES: CCS(=O)(=O)Nc1ccc(-c2n[nH]c(Nc3cnccn3)c2C(N)=O)cc1OCC1CCCC1 [Compound 40, 3-(3-(cyclopentylmethoxy)-4-(ethylsulfonamido)phenyl)-5-(pyrazin-2-ylamino)-1H-pyrazole-4-carboxamide]
pKd (RIP3): < 4.52
pKd (RIP1): < 4.52

SMILES: CCS(=O)(=O)Nc1ccc(-c2n[nH]c(Nc3cnccn3)c2C(N)=O)cc1OCC(C)C [Compound 45, 3-(4-(ethylsulfonamido)-3-isobutoxyphenyl)-5-(pyrazin-2-ylamino)-1H-pyrazole-4-carboxamide]
pKd (RIP3): < 4.52
pKd (RIP1): 4.52 to 6.00

SMILES: CCS(=O)(=O)Nc1ccc(-c2n[nH]c(Nc3cnccn3)c2C(N)=O)cc1OCC1CCCCC1 [Compound 47, 3-(3-(cyclohexylmethoxy)-4-(ethylsulfonamido)pheny)-5-(pyrazin-2-ylamino)-1H-pyrazole-4-carboxamide]
pKd (RIP3): < 4.52
pKd (RIP1): < 4.52

Further lines, results first:

pKd (RIP3): < 4.52
pKd (RIP1): < 4.52
SMILES: C[C@@H](Oc1cc(-c2n[nH]c(Nc3cnccn3)c2C(N)=O)ccc1NS(=O)(=O)C(F)F)c1ncco1 (single isomer, unassigned) [Compound 280]

pKd (RIP3): < 4.52
pKd (RIP1): < 4.52
SMILES: CCS(=O)(=O)Nc1ccc(-c2n[nH]c(Nc3cccc(C(F)(F)F)n3)c2C(N)=O)cc1OCc1cccc(Cl)c1 [Compound 3, 3-(3-((3-chlorobenzyl)oxy)-4-(ethylsulfonamido)phenyl)-5-((6-(trifluoromethyl)pyridin-2-yl)amino)-1H-pyrazole-4-carboxamide]

pKd (RIP3): < 4.52
pKd (RIP1): < 4.52
SMILES: CCS(=O)(=O)Nc1ccc(-c2n[nH]c(Nc3cnccn3)c2C(N)=O)cc1OCC1CCN(C(C)=O)CC1 [Compound 7, 3-(3-((1-acetylpiperidin-4-yl)methoxy)-4-(ethylsulfonamido)phenyl)-5-(pyrazin-2-ylamino)-1H-pyrazole-4-carboxamide]

pKd (RIP3): < 4.52
pKd (RIP1): < 4.52
SMILES: CCS(=O)(=O)Nc1ccc(-c2n[nH]c(Nc3cccc(C(F)(F)F)n3)c2C(N)=O)cc1OCC1CCCC1 [Compound 10, 3-(3-(cyclopentylmethoxy)-4-(ethylsulfonamido)phenyl)-5-((6-(trifluoromethyl)pyridin-2-yl)amino)-1H-pyrazole-4-carboxamide]

pKd (RIP3): < 4.52
pKd (RIP1): < 4.52
SMILES: CCS(=O)(=O)Nc1ccc(-c2n[nH]c(Nc3cccc(C(F)(F)F)n3)c2C(N)=O)cc1OCc1ccncc1 [Compound 16, 3-(4-(ethylsulfonamido)-3-(pyridin-4-ylmethoxy)phenyl)-5-((6-(trifluoromethyl)pyridin-2-yl)amino)-1H-pyrazole-4-carboxamide]

pKd (RIP3): < 4.52
pKd (RIP1): < 4.52
SMILES: CCS(=O)(=O)Nc1ccc(-c2n[nH]c(Nc3ccccn3)c2C(N)=O)cc1OCc1ccccc1 [Compound 20, 3-(3-(benzyloxy)-4-(ethylsulfonamido)phenyl)-5-(pyridin-2-ylamino)-1H-pyrazole-4-carboxamide]

pKd (RIP3): 4.52 to 6.00
pKd (RIP1): < 4.52
SMILES: NC(=O)c1c(-c2ccc(NS(=O)(=O)CC(F)F)cc2)n[nH]c1Nc1cccc(C(F)(F)F)n1 [Compound 49, 3-(4-((2,2-difluoroethyl)sulfonamido)phenyl)-5-((6-(trifluoromethyl)pyridin-2-yl)amino)-1H-pyrazole-4-carboxamide]

pKd (RIP3): 4.52 to 6.00
pKd (RIP1): < 4.52
SMILES: NC(=O)c1c(-c2ccc(NS(=O)(=O)C3CC3)cc2)n[nH]c1Nc1cccc(C(F)(F)F)n1 [Compound 52, 3-(4-(cyclopropanesulfonamido)phenyl)-5-((6-(trifluoromethyl)pyridin-2-yl)amino)-1H-pyrazole-4-carboxamide]
